Measured values as given in the RNAGym collection of RNA variant scans (doi:10.7554/elife.90254).
The source gives no read counts; variants with many changes may rest on few reads.

B1: OR4K15 (parent)
chain: GUUAACGGUCAUAGGCCAUGGAAACUAGGAGCACCAUUUCGCUGCCAGUGAAGAAAUGAACAAAGAAAAUCUGGGCCAGGCAGGCAUCAAAAGAAAUAGUCUUGCGCUCAACCAGAAAGUCUGUAAUCAUUUUAAGGGUA

Variants of: B1
Assay: self-cleavage, relative activity (ratio to wild type); higher = more cleavage; in vitro, sequencing; the parent is a self-cleaving ribozyme

| Variant | self-cleavage |
| --- | --- |
| A67G U87C U139C | 1.16 |
| A23G A24C A59G A82U U108C U122G | 0.01 |
| A95G U108C A118G C121U | 0.01 |
| A55G A91G U108C U130C | 0 |
| A13C A36G A47G A67G | 0.55 |
| A24G A63G A111G | 0.05 |
| G20U C45G U49C A56G A114G U124A | 0.08 |
| A30U A82C A140G | 0.06 |
| A18G A54U A64G | 1.85 |
| U2A A60U A86U | 1.54 |
| A5G U38A U70A | 0.94 |
| A24G C34U A62G U97C | 0.53 |
| A69G U102C U139A | 1.66 |
| U9C A69U A135G | 1.63 |
| A59G A62U U103C U122C | 0.56 |
| U43C U49C A55G U70A | 1.5 |
| A30G A55G A69G | 1.19 |
| A23G A59G A129C | 0.97 |
| U9C U19C A82G A135G | 0.59 |
| U2C A90G A111C A129G | 0.03 |
| G48A A60G A68G A69G A135G | 0.49 |
| U87C A98G U100C A111U U130C | 0.03 |
| U43A A56G A94U U120A U130C | 1.38 |
| U12A U39C A60C U127C | 0.29 |

| Variant | self-cleavage |
| --- | --- |
| A18G A51U U120A C128A A129U A140G | 0.29 |
| G7A A22G A24G | 1.02 |
| A47G A56G A67G | 1.99 |
| U43A A64C A110G | 0.16 |
| U12C A59G A94U U103C | 1.14 |
| A56U A64G U72C A89U | 0.23 |
| U38C G74U A82U C105U U108C C112U | 0.01 |
| A67G A82G G83U U108A A126G | 0.02 |
| U43A C46A U70C | 0.82 |
| A86U A110G U122G | 0.06 |
| A82U A92G A110G A126G | 0.03 |
| A24G U39C A82U A110G | 0.1 |
| A33U G44A U108A A116G | 0.02 |
| U3A A67G U103C | 0.69 |
| A22G A91G A116U A135G G137U | 0.24 |
| U2G A30U U37C A114G A116U | 0.08 |
| G20U A47G G106U | 0.03 |
| U38A A56G A59U | 0.91 |
| A36G A69G U108C A117G | 0 |
| U39C A51G C76A A117G | 0.12 |
| U12C U43C A66U U72C A94U A116U | 0.01 |
| A66G U108C U124A | 0 |
| U26C A59G U87C | 0.62 |
| U38C A62G U103C A129G | 0.52 |

| Variant | self-cleavage |
| --- | --- |
| A51U U132C A135U | 1.72 |
| U43A A118U U131G | 0.29 |
| A47U A96G A110G | 0.14 |
| U9C A59U A67G A125G | 0.72 |
| G84A A95G U103C U130G | 1.25 |
| A13U A66G G79A A95G A126G | 0.03 |
| A22G U43C U70A | 1.23 |
| U9A U43C A55G A63G A92G U108A A111C | 0.01 |
| A24G A67G A117G A129G | 0.64 |
| A24G A51G A59U A94G | 1.57 |
| A33G U39C U72A A78U | 0.14 |
| A30G A114U U122C | 0.04 |
| C85U A96G U108C | 0.04 |
| A4G A59G A114U A118U U124C | 0.07 |
| A24G A54U A90G | 1.27 |
| A54G A55G U57A | 0.62 |
| A18U U43C A59G U87C | 0.68 |
| G41U G44A U102C | 2.14 |
| A27G G29A A62G A69G | 1.34 |
| U19C U39C A52G U57C A62G | 0.94 |
| A33G U43C U72A | 0.11 |
| A52G A68G A82G A90G A110G U127C | 0.01 |
| U49A A91G U130C | 0.29 |
| A11G A24G A47G | 0.43 |

| Variant | self-cleavage |
| --- | --- |
| U39C U70C A78U A91G A129C | 0.06 |
| A11G A18G U100C | 0.78 |
| U38C G93A A117G C128U U133C | 2.32 |
| G28U A51G G137A | 1.49 |
| G20A A33G C35A A82G | 0.41 |
| A4G U12C A96C A111G | 0 |
| A22G A23G G41U A117G | 1.31 |
| U19C A33U U39A | 1.48 |
| U38A A59U A62G U122A | 2.15 |
| A22U A33U A110U | 1.28 |
| A86G U102A U130C | 0.93 |
| A11G A22G A62C A63G A66G | 0.48 |
| A69G U70C U131C | 0.12 |
| U43A A66U A111U | 0.21 |
| A18U U49C U120A | 1.33 |
| A33G A67G A111G | 0.04 |
| U12C A78G C128U | 0.34 |
| A18U A56G A60G C109A | 0.13 |
| A5U A36G A126G | 1.09 |
| U72A A90G U100C | 0.72 |
| A23U U57C A114C | 0.01 |
| A11G A30U U43A A86U | 1.94 |
| A4G U102C A125U | 2.14 |
| A23G A52G A63G A82G A91G A116G U130C | 0.1 |

| Variant | self-cleavage |
| --- | --- |
| U43C U87C A90G A110U U131C A140G | 0.08 |
| A55G A59U A64G U102C A111G | 0.01 |
| U26C U39C G99A A117G | 0.3 |
| A62G A86G A118G | 0.83 |
| U2C A36G C46A A62G U87C A125G | 0.13 |
| G80U U87C U139A | 0.16 |
| A5G U72C A98U U102A | 0.17 |
| U12C A18G A91G | 1.2 |
| U38C A47G A60G | 0.53 |
| A30G U57C A82G | 0.34 |
| U9C A63G A68G | 1.16 |
| A51G A59G A140G | 0.57 |
| U9C A51G A59U | 1.15 |
| A22U A69U U102C | 1.98 |
| A64G U87A A116G U127C | 0.63 |
| U19C A24C C42U A89G A90G | 0.89 |
| C61A A92G A118G | 1.43 |
| U2C A98G U108C A126G | 0 |
| C35U G53U U131C | 0.14 |
| A23G U43C A69G G123U A126G | 1.27 |
| U43A A55G U120A U132A | 0.71 |
| A23C A67U A140G | 1.16 |
| A11U A51G A66G | 1.42 |
| U103A U108C U131C | 0 |

| Variant | self-cleavage |
| --- | --- |
| G7A U38C A51G | 2.32 |
| U12C A64G A66G | 1.71 |
| A18G A36G A55G A114G U130C | 0.27 |
| U38C A51G G83A U132C | 2.11 |
| U19G A56G U87C | 1.25 |
| U39C U43A A60G U87A A117U A140G | 1.46 |
| A13U A33G A94G | 2.23 |
| U19C G31C U43C U87C | 1.6 |
| U3C U9C U37C A67G | 1.01 |
| U2C A63G A78G A129G | 0.17 |
| A4G A92G A117C | 0.78 |
| U57A A69U A91G A117G U131C A135U | 0.27 |
| U49C A82G U100G | 0.77 |
| U43A A66G A111G | 0.03 |
| A5G A22G C71U A78U U122C A125G | 0 |
| A36G G41A A51G | 1.63 |
| A52G A98G A114G | 0.2 |
| A63G U72C U87A U103C | 0.21 |
| A36U C101U A116G | 0.08 |
| A59C A110G A129U | 0.06 |
| A24G A94G A116G | 1.69 |
| A4G A23G U49C U72C G123A A126C | 0.26 |
| U43A A66G A67G A116G U120C U127C U133C | 0.82 |
| U38C A67G A82G C107U U108C A140U | 0.05 |

| Variant | self-cleavage |
| --- | --- |
| A23G A33U A114C | 0.07 |
| A86G A91U U120A | 1.57 |
| U26C A68G U132A | 1.68 |
| A18G A51G U108C U122C | 0 |
| U49C A116U U131C | 0.03 |
| U103A A116G U131C | 0.29 |
| U37C A69G U97G | 1.06 |
| U2C A5G A52G G79A | 0.18 |
| A22G A47G A62G | 1.13 |
| A52G A86G G137A | 1.44 |
| U39C A56G A68G | 0.95 |
| A18G U100C U132C | 1.62 |
| U2A C61U U124C | 1.1 |
| A11G A68G A126G | 0.42 |
| U38C A54G U72C A95G U124C | 0.06 |
| U2A A98G U108C | 0.06 |
| A24C A27G U102C A125G | 0.27 |
| A11U A18U G44A U57C | 1.47 |
| C17U A117G U131C | 0.85 |
| U49C A68G A117G A129U U131C | 0.86 |
| A24G A67G A78G U122A | 0.24 |
| A52G A55G U72A | 0.47 |
| A64U U108A U133C | 0.01 |
